PubChem BioAssay AID686978 (National Center for Advancing Translational Sciences (NCATS), 2013)
Several values for one entry are separate records, joined by “and”; a condition that tells them apart may be missing. Equal values may be shown once. Among all 420,000 compounds or so, about 64,000 (15%) were called active. The shares of active, inactive and inconclusive entries below differ from those in the screen. Calls come from the whole dose curve; as a rule, active = well fitted inhibition curve with a large enough effect; inconclusive = small, poorly fitted or top-dose-only effect; inactive = flat fitted curve, though single readings scatter. Potencies of inconclusive entries are doubtful fits and often do not repeat.

Test: qHTS for Inhibitors of human tyrosyl-DNA phosphodiesterase 1 (TDP1): qHTS in cells in absence of CPT; note: nearly all actives have a fitted effect of over 55% in size
Settings: DT40 Tdp1-/- hTDP1 cells, no CPT, ATP luminescence, 48 h; activity change, negative = growth inhibition: at 46.2 µM (top of the series)
How it was run: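 DT40 Tdp1-/-;hTDP1 cells, no CPT (DMSO vehicle only), 400 cells/well; compounds pin-transferred; ≥48 hr, 37 °C; CellTiter-Glo 30 min RT dark, luminescence read.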
% is set by controls: 0 for no effect and ±100 for the full control effect; potency is the fitted concentration of half-maximal effect; tags give direction and shape of the fitted curve.

Question: With `COC(=O)[C@]12CCCCC=C1N(CCC1=CCCCC1)C(=O)[C@H](CC(=O)N1CCC(c3ccccc3)CC1)C2` as the compound, how does the Potency read?
Answer: active: 16.4 µM

Question: With `CCC(=O)N1c2ccccc2CC1C(=O)NCc1ccccc1C` (stereo not drawn) as the compound, how does the “activity change, negative = growth inhibition” value read?
Answer: inactive: -4.03%

Question: For `Cc1ccc(C)c(S(=O)(=O)NC(CC(C)C)C(=O)O)c1` (stereo not drawn), which Potency is on record?
Answer: inconclusive: 29.1 µM [inhibitor, single point]

Question: For `COc1ccc(OC)c(NC(=O)c2cc3c(s2)-c2ccccc2SC3)c1`, which Potency is on record?
Answer: inconclusive: 25.9 µM [inhibitor, single point]

Question: With `CCCCNS(=O)(=O)c1ccc(OCC(=O)OC)cc1` as the compound, how does the “activity change, negative = growth inhibition” value read?
Answer: inactive: -2.76%

Question: For `Cc1cccc(NC(=O)C2CCN(S(=O)(=O)c3c(C)c(C)cc(C)c3C)CC2)n1`, which Potency is on record?
Answer: active: 16.4 µM

Question: Which “activity change, negative = growth inhibition” value does the source give for `COc1cc(NC(=O)CSc2ccccc2)c(C(=O)O)cc1OC` here?
Answer: inactive: -13%

Question: Which “activity change, negative = growth inhibition” value does the source give for `COC(=O)n1c(SC)nc2ccccc21` here?
Answer: inactive: -27.7%

Question: With `CC1=C(C(=O)OCc2ccc(C)cc2)C(c2c(Cl)cccc2Cl)CC(=O)N1` (stereo not drawn) as the compound, how does the Potency read?
Answer: inconclusive: 25.9 µM [inhibitor, single point]

Question: For `Cc1cc(-c2nnc(CCC(=O)NC(C)c3ccccc3Cl)o2)no1` (stereo not drawn), which Potency is on record?
Answer: inconclusive: 18.4 µM [inhibitor, partial curve]

Question: With `CC(CC(=O)Nc1ccc2c(c1)OCO2)c1ccccc1` (stereo not drawn) as the compound, how does the activity change, negative = growth inhibition read?
Answer: inconclusive: -36.3% [inhibitor]

Question: Which Potency does the source give for `C#CCN(Cc1ccc(OC)cc1)S(=O)(=O)C=C` here?
Answer: inconclusive: 35.5 µM [inhibitor, single point]

Question: Which Potency does the source give for `C=CC[C@@H](CC(=O)OC(C)(C)C)C(=O)OC[C@@H]1CCCN1C(=O)[C@@H](CC=C)CC(=O)N[C@@H](CO)Cc1ccccc1` here?
Answer: inconclusive: 20.6 µM [inhibitor, single point]

Question: For `CS(=O)(=O)c1ncc(N(Cc2ccco2)Cc2ccco2)c(C(=O)Nc2ccccc2Br)n1`, which Potency is on record?
Answer: inconclusive: 18.4 µM [inhibitor, single point]

Question: Which Potency does the source give for `Cc1ccc(-n2ncc(C(=O)NC3CCCC3)c2C2CCN(C(=O)OC(C)(C)C)CC2)c(C)c1` here?
Answer: inconclusive: 18.4 µM [inhibitor, single point]

Question: With `O=[N+]([O-])/C(C(Cl)=C(Cl)Cl)=C(/NC1CC1)Sc1ccccc1` as the compound, how does the Potency read?
Answer: active: 23.1 µM

Question: Which “activity change, negative = growth inhibition” value does the source give for `Cn1c(=O)oc2cc(S(=O)(=O)NCc3ccc(C(=O)O)cc3)ccc21` here?
Answer: inactive: 0.0985%

Question: For `COc1cccc(Nc2nc(-c3sc(C)nc3C)cs2)c1`, which Potency is on record?
Answer: inconclusive: 29.1 µM [inhibitor, single point]

Question: With `Cc1ccc(C23CC4CC(CC(C(=O)OCC(=O)N(C)C)(C4)C2)C3)cc1` as the compound, how does the “activity change, negative = growth inhibition” value read?
Answer: inactive: -22.8%

Question: For `COc1cccc(Cn2nnc3c(=O)[nH]c(C4CCCN(C(=O)c5ccc(C)cc5)C4)nc32)c1` (stereo not drawn), which Potency is on record?
Answer: inconclusive: 29.1 µM [inhibitor, single point]

Question: With `Cc1ccccc1NC(=S)NNC(=O)c1csc2c1CCC(C)C2` (stereo not drawn) as the compound, how does the Potency read?
Answer: inconclusive: 35.5 µM [inhibitor, single point]

Question: For `CCCc1nc2cc(C)c(Br)c(C)n2c1Cc1ccsc1`, which Potency is on record?
Answer: active: 18.4 µM

Question: For `Cc1ccc2c(C)nc(Nc3nc(CSc4nc5ccccc5s4)cc(=O)[nH]3)nc2c1`, which Potency is on record?
Answer: active: 5.17 µM

Question: With `Cc1ccc(C)c(NS(=O)(=O)c2ccc3c4c(cccc24)C(=O)N3)c1` as the compound, how does the Potency read?
Answer: active: 14.6 µM

Question: For `CCOC(=O)c1sc2ccccc2c1S(=O)(=O)Nc1cccc(C(F)(F)F)c1`, which Potency is on record?
Answer: inconclusive: 25.9 µM [inhibitor, single point]

Question: With `O=C(NCc1ccco1)c1cccs1` as the compound, how does the Potency read?
Answer: inconclusive: 3.66 µM [inhibitor, partial curve]

Question: Which Potency does the source give for `CC1(C(=O)Nc2cccc(C#N)c2)CCN1C(=O)C1(c2ccccc2)CC1` (stereo not drawn) here?
Answer: inconclusive: 16.4 µM [inhibitor, partial curve]

Question: Which Potency does the source give for `O=C(O)C1=CC[C@@H](c2ccc(Cl)cc2)N(S(=O)(=O)c2ccc(Cl)cc2)[C@H]1c1ccc(Br)cc1` here?
Answer: inconclusive: 29.1 µM [inhibitor, single point]

Question: Which “activity change, negative = growth inhibition” value does the source give for `O=C(NCCC(=O)N1CCC2(CC1)NCCc1[nH]cnc12)c1cccc(Br)c1` here?
Answer: inactive: 9.78%

Question: Which Potency does the source give for `CN(C)CCCN(C(=O)c1ccc2c(c1)CCCC2)c1nc2c(F)cccc2s1` here?
Answer: active: 23.1 µM

Question: Which Potency does the source give for `O=C(CN1C(=O)CCS(=O)(=O)c2ccccc21)Nc1cccc(Cl)c1` here?
Answer: inconclusive: 16.4 µM [inhibitor, partial curve, poor fit]

Question: Which Potency does the source give for `CC(C)c1nc2ccccc2c2nnc(SCC(=O)NCc3ccco3)n12` here?
Answer: inconclusive: 29.1 µM [inhibitor, single point]

Question: With `S=C(NC1CCCCC1)N(CCc1nc2ccccc2[nH]1)C1CCCC1` as the compound, how does the Potency read?
Answer: inconclusive: 25.9 µM [inhibitor, single point]

Question: For `O=C(COC(=O)CCCSc1nc2ccccc2[nH]1)Nc1ccc(Cl)cc1`, which activity change, negative = growth inhibition is on record?
Answer: inconclusive: -31.6% [inhibitor]

Question: For `C=CCc1cccc2cc(C(=O)Nc3cccc(Cl)c3)c(=O)oc12`, which Potency is on record?
Answer: inconclusive: 18.4 µM [inhibitor, partial curve]

Question: For `COc1cccc(C(=O)C2CCCN(C(=O)CCc3scnc3C)C2)c1` (stereo not drawn), which “activity change, negative = growth inhibition” value is on record?
Answer: inactive: -26.2%

Question: Which “activity change, negative = growth inhibition” value does the source give for `Cc1ccsc1C(=O)OCC(=O)Nc1ccc(Cl)cc1C(F)(F)F` here?
Answer: inactive: 1.83%

Question: Which “activity change, negative = growth inhibition” value does the source give for `c1ccc2cc(C3=NCCN3)ccc2c1` here?
Answer: inactive: -24%

Question: Which “activity change, negative = growth inhibition” value does the source give for `Cc1nccn1CCc1n[nH]c(=S)n1Cc1ccccc1` here?
Answer: inactive: 2.98%

Question: For `c1ccc(-c2c[nH]c(-c3ccccc3)c2)cc1`, which “activity change, negative = growth inhibition” value is on record?
Answer: inactive: -2.86%

Question: Which Potency does the source give for `CCc1ccccc1NCC(=O)Nc1ccccc1C(=O)OC` here?
Answer: inconclusive: 23.1 µM [inhibitor, single point]

Question: For `Cc1c(Cl)cccc1NC(CC(=O)c1ccccc1)C(=O)O` (stereo not drawn), which Potency is on record?
Answer: inconclusive: 29.1 µM [inhibitor, single point]

Question: Which Potency does the source give for `CCOC(=O)C1CCCN(c2nc3ccccc3nc2C(C#N)C(=O)OCC)C1` (stereo not drawn) here?
Answer: active: 23.1 µM

Question: With `O=C(NCc1ccccc1)C1(c2cccc(F)c2)CCCC1` as the compound, how does the Potency read?
Answer: inconclusive: 25.9 µM [inhibitor, single point]

Question: For `Cc1cccn2c(=O)c3cc(C(=O)N4COCC4(C)C)n(C)c3nc12`, which Potency is on record?
Answer: inconclusive: 14.6 µM [inhibitor, partial curve, poor fit]

Question: Which Potency does the source give for `NC(=O)CC(NC(=O)c1ccccc1)c1ccc(N2CCc3ccccc3C2)c([N+](=O)[O-])c1` (stereo not drawn) here?
Answer: inconclusive: 13 µM [inhibitor, partial curve]

Question: For `COc1ccc(CNC(=O)C(C#N)c2nc3ccccc3nc2N2CCCC2)cc1` (stereo not drawn), which Potency is on record?
Answer: inconclusive: 18.4 µM [inhibitor, single point]

Question: Which “activity change, negative = growth inhibition” value does the source give for `Cc1coc2c1c(C)cc1oc(=O)cc(C)c12` here?
Answer: inactive: 5.67%

Question: Which Potency does the source give for `Cc1ccc(C)c(C(=O)CCC(=O)N2CCN(c3cccc(C(F)(F)F)c3)CC2)c1` here?
Answer: active: 11.6 µM

Question: With `O=C(c1cc(COc2ccc(F)cc2F)on1)N1CCN(C(=O)c2ccco2)CC1` as the compound, how does the Potency read?
Answer: inconclusive: 29.1 µM [inhibitor, single point]

Question: With `COc1ccc(CNn2cnnc2)c(O)c1` as the compound, how does the “activity change, negative = growth inhibition” value read?
Answer: inactive: -1.64%

Question: For `O=C(N/N=C/c1ccccn1)c1cccc(NC(=O)c2ccccc2Cl)c1`, which Potency is on record?
Answer: inconclusive: 23.1 µM [inhibitor, single point]

Question: With `Cc1oc(-c2ccccc2F)nc1CS(=O)(=O)CC(=O)N1CCCCCC1` as the compound, how does the Potency read?
Answer: inconclusive: 9.2 µM [inhibitor, partial curve]

Question: For `COc1cccc2c1C(=O)c1c(O)c3c(c(O)c1C2=O)C[C@@](O)(C(=O)CO)C[C@@H]3OC1CC(N)C(O)C(C)O1` (stereo partly drawn), which Potency is on record?
Answer: active: 0.259 µM

Question: Which Potency does the source give for `CC1CN(C(=O)c2ccccc2OCc2ccc(Cl)cc2Cl)CC(C)O1` (stereo not drawn) here?
Answer: active: 3.66 µM

Question: For `Cc1oc(-c2cccc(Cl)c2)nc1CN1CCCC(C(=O)NCc2ccc(F)cc2)C1` (stereo not drawn), which Potency is on record?
Answer: active: 5.8 µM

Question: Which “activity change, negative = growth inhibition” value does the source give for `CC(C)OCCCNC(=O)c1ccc2c(=O)n(CCc3ccccc3)c(=O)[nH]c2c1` here?
Answer: inactive: -18.4%

Question: With `O=C(CSc1ncn[nH]1)NCc1ccc(Cl)cc1` as the compound, how does the “activity change, negative = growth inhibition” value read?
Answer: inactive: 1.86%

Question: For `Cc1[nH]c2ccccc2c1SCC(=O)Nc1nccs1`, which “activity change, negative = growth inhibition” value is on record?
Answer: inactive: -6.86%

Question: Which Potency does the source give for `O=C(NCCCCc1ccccc1)c1cccc(NC(=O)C2CCCCC2)c1` here?
Answer: active: 25.9 µM

Question: Which Potency does the source give for `O=C(Nc1ccccc1SC(=O)c1ccccc1)c1ccccc1` here?
Answer: active: 4.61 µM

Question: For `COc1ccc(C(NC(=O)C2CCN(CCOc3ccc(Cl)cc3Cl)CC2)c2cccs2)cc1` (stereo not drawn), which Potency is on record?
Answer: active: 16.4 µM

Question: With `COc1ccc(-c2[nH]ncc2CN2CCN(Cc3cccs3)CC2)cc1F` as the compound, how does the activity change, negative = growth inhibition read?
Answer: inconclusive: -30.1% [inhibitor]

Question: Which Potency does the source give for `COc1ccccc1C(=O)Nc1ccc2c(c1)CN(Cc1cnc(C)s1)CC2` here?
Answer: inconclusive: 16.4 µM [inhibitor, single point]

Question: With `Cc1ccc(-c2nnn(CC(=O)N(Cc3ccccc3F)C(C(=O)NC3CCCC3)c3ccncc3)n2)o1` (stereo not drawn) as the compound, how does the “activity change, negative = growth inhibition” value read?
Answer: inactive: -3.51%

Question: With `Nc1cccc(-n2nnnc2CN2CCOCC2)c1` as the compound, how does the Potency read?
Answer: active: 16.4 µM

Question: Which Potency does the source give for `Cc1ccc(-c2c(C(=O)NCc3ccccc3)oc(=O)c3ccccc23)cc1` here?
Answer: inactive and inconclusive: 29.1 µM [inhibitor, single point]

Question: Which Potency does the source give for `COc1ccc2c(c1)CCc1c(C(=O)NCCc3ccc(OC)c(OC)c3)noc1-2` here?
Answer: active: 12.6 µM

Question: With `CCOc1ccc(-c2nc3c(s2)CCc2onc(-c4ccc(OC)cc4)c2-3)cc1` as the compound, how does the Potency read?
Answer: inconclusive: 14.6 µM [inhibitor, single point]

Question: Which Potency does the source give for `N#Cc1ccc(CN2CCN(C(=O)c3cn(Cc4ccccc4)nc3-c3cccnc3)CC2)cc1` here?
Answer: inconclusive: 23.1 µM [inhibitor, single point]

Question: Which activity change, negative = growth inhibition does the source give for `Cc1ccc(CCNC(=O)C2CCCN(C(=O)c3cc4sccc4n3C)C2)cc1` (stereo not drawn) here?
Answer: inconclusive: -30.9% [inhibitor]

Question: With `CCC(C)NC(=O)c1ccc(-n2c(-c3ccccc3)cc3c2CCCC3)cc1` (stereo not drawn) as the compound, how does the Potency read?
Answer: inconclusive: 18.4 µM [inhibitor, single point]

Question: For `COc1ccc(N2CCN(C(=O)C(Cc3ccccc3)n3cccc3)CC2)cc1` (stereo not drawn), which Potency is on record?
Answer: inconclusive: 29.1 µM [inhibitor, single point]
